Test results published in the supplement of paper PMC4604168 (melanoma cell lines).
The other results are listed elsewhere or left out. Single values are uncertain, as repeats are few or missing.

Each compound was assayed on SkMel30 (assay: cell count relative to DMSO control; melanoma cells; higher = more viable cells). Conditions: library dose: standard library concentration; 72 h.
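Also: cells treated in 1,536-well plates, then fixed and DAPI-stained, with nuclei counted from automated high-throughput microscope images.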

SMILES	cell count [%]
Cc1cc(N2CCOCC2)cc2[nH]c(-c3c(NC[C@@H](O)c4cccc(Cl)c4)cc[nH]c3=O)nc12 + Oc1cc(-c2nc(-c3ccccc3)[nH]c2-c2ccncc2)ccc1Cl [L779450] (first compound 1 µM, partner dose 1 µM)	80.5
O=C(O)[C@@H]1[O][Sb](=[O])([O][Sb]2(=[O])[O][C@H]([C@H](O)CO)[C@H](O)[C@H](C(=O)O)[O]2)[O][C@H]([C@H](O)CO)[C@@H]1O (stereo not given in full) [stibogluconate] + O=S(=O)(c1ccccc1)N(CC(F)(F)F)c1ccc(C(O)(C(F)(F)F)C(F)(F)F)cc1 [T0901317] (first compound 10 µM, partner dose 7 µM)	100
O=C(O)[C@@H]1[O][Sb](=[O])([O][Sb]2(=[O])[O][C@H]([C@H](O)CO)[C@H](O)[C@H](C(=O)O)[O]2)[O][C@H]([C@H](O)CO)[C@@H]1O (stereo not given in full) [stibogluconate] + Cn1cncc1[C@@](N)(c1ccc(Cl)cc1)c1ccc2c(c1)c(-c1cccc(Cl)c1)cc(=O)n2C [tipifarnib] (first compound 10 µM, partner dose 0.05 µM)	84.8
O=C(Nc1cc(C(F)(F)F)cc(C(F)(F)F)c1)c1cc(Cl)ccc1O + COc1ccc(COc2ccc(Cc3cnc(N)nc3N)cc2OC)cc1 [GW2580] (first compound 0.08 µM, partner dose 5 µM)	88.5
O=C(Nc1cc(C(F)(F)F)cc(C(F)(F)F)c1)c1cc(Cl)ccc1O + Cc1cc([N+](=O)[O-])ccc1NS(=O)(=O)c1cc(Cl)ccc1Cl [FH535] (first compound 0.08 µM, partner dose 5 µM)	98.3
O=C(Nc1cc(C(F)(F)F)cc(C(F)(F)F)c1)c1cc(Cl)ccc1O + Cn1cc(/C=C2\C(=O)Nc3cccnc32)c2ccccc21 [GW441756] (first compound 0.08 µM, partner dose 2 µM)	117
O=C(O)c1ccc2c(c1)nc(Nc1cccc(Cl)c1)c1ccncc12 + CCc1ccc(CCOc2ccc(CC3SC(=O)NC3=O)cc2)nc1 [pioglitazone] (first compound 2 µM, partner dose 10 µM)	70.6
Cc1cc(N2CCOCC2)cc2[nH]c(-c3c(NC[C@@H](O)c4cccc(Cl)c4)cc[nH]c3=O)nc12 + CC(C)CCN1c2nc(Nc3cc(F)c(O)c(F)c3)ncc2N(C)C(=O)C1C [BID1870] (first compound 1 µM, partner dose 1 µM)	75.2
O=C(Nc1ccccc1)c1cc([N+](=O)[O-])ccc1Cl + COc1ccc(-c2ccc3c(N4CCOCC4)nc(N4C[C@@H](C)O[C@@H](C)C4)nc3n2)cc1CO [KU0063794] (first compound 10 µM, partner dose 0.1 µM)	102
O=C(O)c1ccc2c(c1)nc(Nc1cccc(Cl)c1)c1ccncc12 + O=c1cc(-c2cccc3c2Sc2ccccc2S3)oc(N2CCOCC2)c1 [KU55933] (first compound 2 µM, partner dose 5 µM)	73.5
O=C(O)c1ccc2c(c1)nc(Nc1cccc(Cl)c1)c1ccncc12 + c1cc(-c2cnn3cc(-c4ccc(OCCN5CCCCC5)cc4)cnc23)ccn1 [Dorsomorphin] (first compound 2 µM, partner dose 2 µM)	87.8
Cn1nnc2c(C(N)=O)ncn2c1=O [temozolomide] + Cc1cc([N+](=O)[O-])ccc1NS(=O)(=O)c1cc(Cl)ccc1Cl [FH535] (first compound 10 µM, partner dose 5 µM)	76.2
O=C(Nc1cc(C(F)(F)F)cc(C(F)(F)F)c1)c1cc(Cl)ccc1O + COc1ccc2c(c1)CCC1C2CCC2(C)C(NCCCCCCN3C(=O)C=CC3=O)CCC12 [U73122] (first compound 0.08 µM, partner dose 2 µM)	98.5
Cc1cc(N2CCOCC2)cc2[nH]c(-c3c(NC[C@@H](O)c4cccc(Cl)c4)cc[nH]c3=O)nc12 + Oc1nc(-c2ccc(C(F)(F)F)cc2)nc2c1CSCC2 [XAV939] (first compound 1 µM, partner dose 10 µM)	83.6
O=C(Nc1cc(C(F)(F)F)cc(C(F)(F)F)c1)c1cc(Cl)ccc1O + CC(=O)O[C@@]12CO[C@@H]1C[C@H](O)[C@@]1(C)C(=O)[C@H](O)C3=C(C)[C@@H](OC(=O)[C@H](O)[C@@H](NC(=O)OC(C)(C)C)c4ccccc4)C[C@@](O)([C@@H](OC(=O)c4ccccc4)[C@H]21)C3(C)C [Docetaxel] (first compound 0.08 µM, partner dose 0.0005 µM)	42
